Measurements taken from the supplement of paper PMC3334620.
In all, about 33,000 sequences were measured (“E-score (-0.5 to 0.5)”: median about -0.013, highest 2% from about 0.3 on). This is one part of the list.

biological target: T1, Msn1 (UniProt P22148); assay: PBM E-score (8-mer binding enrichment) (E-score (-0.5 to 0.5)); higher = stronger / more preferred TF binding; most listed sequences are background and not binding sites; details: protein concentration: 200 nM; construct: GST-full length
T1 sequence: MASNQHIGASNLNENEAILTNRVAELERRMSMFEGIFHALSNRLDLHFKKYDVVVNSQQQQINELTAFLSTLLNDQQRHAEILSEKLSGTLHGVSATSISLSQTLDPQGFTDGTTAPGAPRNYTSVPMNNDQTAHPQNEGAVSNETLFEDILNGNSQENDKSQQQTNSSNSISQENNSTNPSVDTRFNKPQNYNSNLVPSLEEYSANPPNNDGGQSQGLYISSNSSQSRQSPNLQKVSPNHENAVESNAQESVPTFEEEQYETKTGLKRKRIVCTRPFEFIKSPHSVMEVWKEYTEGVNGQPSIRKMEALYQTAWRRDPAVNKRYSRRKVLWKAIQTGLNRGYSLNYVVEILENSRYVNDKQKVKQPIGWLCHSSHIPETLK
In short: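 Yeast transcription factors, full-length or as DNA-binding domains, were expressed with a GST tag using PURExpress in vitro transcription/translation. At about 100-200 nM they were applied to universal all-10-mer Agilent arrays, double-stranded by primer extension on fresh or once-stripped slides. Fluorescent anti-GST detected bound protein, and masliner normalised the scans. E-scores for ungapped eight-base words, pooled with reverse complements, came from the Universal PBM Analysis Suite.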

Sequence	PBM E-score
CGTGTCCA	0.424
TAACGATA	0.0612
AATGGTGT	0.0502
CCTGTCCC	0.282
ATATTTCC	0.0237
TATGCCGA	0.0169
GTCGGCGA	-0.0425
TGATCGAA	-0.136
CAGCTCAG	-0.126
ATGGCATG	0.0429
AGCTAAAA	0.0229
TAGAGCAA	-0.0788
ATTCGAAG	0.00246
CATTTTAG	0.179
CGCTCCAC	-0.204
ACAGCCTC	-0.182
TCTTTACA	0.0499
GCACCATA	-0.0776
CTGCCGTA	-0.0818
TATCACAA	-0.00162
CTTTTGTC	0.455
CCCTTCAC	-0.269
GGTTCGTA	-0.0596
AAGGCTGT	-0.252
CGCGGTAA	0.0291

Sequence	PBM E-score
AGGGCCTC	-0.236
GGTCGAAA	-0.277
GACCCTAC	-0.19
GGTACTCA	-0.089
ATAGCGAT	-0.0141
CAATCGGC	0.0138
ACAAATTC	0.306
TGTGCCAA	0.148
GCCAAACA	-0.158
CCTGACAG	-0.105
GCCGCACC	-0.23
CACAATAA	-0.00093
CCAAGCTC	0.133
CAGTATTC	-0.0522
CTGTACGC	-0.0179
GCCGAAAA	0.3
AGTCAACT	-0.213
CTAGTGCA	0.175
GCAAAGCA	-0.137
GCTCGGCC	-0.164
CTCCCGTC	-0.0977
ACAGTACT	0.103
AGGGCTCA	-0.2
AATCGGGA	0.25
CTATCGAC	-0.111

Sequence	PBM E-score
TATGGCAA	-0.008
GACGGCTC	-0.211
CTGGAGCA	-0.138
CCTATCTC	-0.183
AAATACCC	-0.0057
GCCGTCAA	-0.0445
CCTGATCC	-0.169
CGAGCTTA	-0.0549
AAGCTTGT	0.0725
CTTCTGCC	-0.117
GTTTGGCA	-0.0269
AAGGTTTG	-0.0327
AGCGACAA	0.301
AAGTTCGA	0.168
CTACGTAA	-0.0509
ATGCCTGC	-0.145
CATACAGA	0.182
ATGGAGGC	-0.327
AACCGGAG	0.0376
CTGCAAAG	-0.202
GGGGAGCA	-0.414
GCCGCCAC	-0.269
CTATCCTA	-0.0856
CGGTAATC	-0.0925
AGCATCCA	-0.0284

Sequence	PBM E-score
GCAAATCC	0.116
ATGGTTAG	0.0359
CTCCACAC	-0.205
CTGAAGTA	-0.0804
ACAACGTG	0.12
CAGCTAAG	-0.15
CGGCAACG	-0.148
GGCTAGAC	-0.206
CTGCTTAA	-0.0855
CTGCCCAG	-0.31
CCAGTTAG	-0.0534
CCACCGCC	-0.159
ATTTGGCA	0.0086
GAGACTCA	0.0191
CCATTGCA	0.0313
CAATTGAC	0.0683
CTCGAACA	-0.0343
ACCGACCG	0.0479
AGTTCTAC	-0.0788
CCGTAGCC	-0.233
ACTTACTG	-0.113
ACTCATGG	-0.103
ATTTCTTC	0.146
AGGGGCTG	-0.094
GCCTGTTA	-0.0683

Sequence	PBM E-score
GGCAACCA	-0.198
AGATGAAG	-0.119
AACTTGAC	-0.0194
CTACGGAA	0.0358
CCCTGCAC	-0.162
GCATTAGA	-0.0163
GCGCCGAC	0.0435
AGTGGAGC	-0.27
ATAAATCA	0.108
CGGAGCTA	-0.0648
AGGTGGCA	-0.157
CCGGTGAA	0.0572
TATGCCAA	-0.031
AAGGTCGT	-0.0332
AGGGAGTC	-0.242
AAAGCCTC	-0.0738
GATACCGA	-0.016
GAGAGTAC	0.0327
GGATACCA	-0.0112
TCCCATAA	0.113
AACACAGT	0.27
CAGTAACG	-0.0501
TACCTCGA	0.106
ACAGTGGC	-0.0849
GGGCTGGA	-0.171

Sequence	PBM E-score
CGTTCAAG	0.0794
GCAGAGGA	0.0414
AAGAGATC	-0.0725
CATCTACG	0.0396
AAACTCGC	-0.0392
AGCCCCAC	-0.234
ATTTACCA	0.14
ACAGTTGC	0.116
CCGCTTCC	-0.183
CCACTTAA	-0.0577
AGGTGCTC	-0.306
GTTGAGCA	-0.117
GAAAGGAC	0.265
GACAGCTC	-0.202
GATTGTGA	0.0853
TACTCTCA	-0.0218
CGAAGCGC	0.0371
CGCCGGTC	-0.0266
CCGAGCCC	-0.12
ATAGTTAA	-0.0439
AGTTTGCC	0.0205
AAAATTGA	0.0956
TGGTCTAA	-0.0904
CTACTGTA	0.0337
CCCTACCA	-0.0743

Sequence	PBM E-score
GACAGGCC	0.146
CGAAAGGC	-0.0418
GCGGCAGA	-0.169
AGAGGACA	0.353
ATCTAACC	0.0546
CGAAGGCG	-0.0827
GTGTCATA	0.292
AACCGCAT	0.0216
ATCGCGAC	0.0953
AGTTCGCA	0.106
CCCAACGG	-0.0718
AAGCCACC	-0.194
CCTGAGAG	-0.169
ACCCGTTC	-0.108
CGTTTAAC	0.0247
ACTAAACT	0.105
AATTGGCT	0.128
ATGACAAA	0.433
CGAGCTAG	-0.0663
GTCTCCGA	0.0887
ACTGGCCA	-0.0813
AAATTAAA	0.355
